± gives the uncertainty stated by the source. The sequences are guide strands of siRNAs; only the seed at positions 2 to 7 varies.
Experiments:
[1] = tested on: 3LL; test: cell viability relative to siNT1 control; higher = less toxic; conditions: concentration: 10 nM; 96 h; Mus musculus;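 note: Luminescence-based viability of cells reverse transfected in 384-well plates with lipid-complexed siRNAs built on a non-toxic 19mer backbone whose passenger strand carries 2′-O-methyl groups at positions 1 and 2, triplicates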
[2] = tested on: H460; test: cell viability relative to lipid-only control; HeyA8 human ovarian and H460 human lung cancer; M565 mouse liver and 3LL mouse lung cancer; siNT1 is a non-toxic control siRNA; higher = less toxic; conditions: concentration: 10 nM; 96 h; Homo sapiens
Method: (§1)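 Arrayed screen of 4096 siRNA duplexes, each carrying one of all possible 6mer seeds at guide-strand positions 2-7 in a fixed neutral 19mer scaffold (constant flanks: U at position 1, then ACAUGUAAACCA, plus a 3' AA overhang). The passenger strand is 2'-O-methylated at positions 1-2 so only the guide strand loads into RISC. Duplexes were reverse-transfected at 10 nM with RNAiMAX in triplicate in 384-well plates; viability was read by CellTiter-Glo ATP content 96 h after transfection. Values are % viability normalised to lipid-only wells (HeyA8, H460, M565) or to siNT1 (3LL).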

[3] = tested on: M565; test: as above; conditions: concentration: 10 nM; 96 h; Mus musculus
Method: as §1

[4] = tested on: HeyA8; test: as above; conditions: concentration: 10 nM; 96 h; Homo sapiens
Method: as §1
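Throughout, for cell viability relative to lipid-only control: reverse lipid transfection in 384-well plates, in triplicate, of duplexes on a non-toxic 19mer backbone with passenger strand 2′-O-methylated at positions 1 and 2, luminescence viability read-out.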

Sequence | cell viability [1] [%] | cell viability [2] [%] | cell viability [3] [%] | cell viability [4] [%]
UCAUGUUACAUGUAAACCAAA | 88.2 ± 15 | 45.6 ± 2.7 | 28.1 ± 7.3 | 63.4 ± 1.9
UCAUUAAACAUGUAAACCAAA | 89.3 ± 11 | 57.8 ± 9.7 | 68.1 ± 6.7 | 73.8 ± 5
UCAUUACACAUGUAAACCAAA | 91.1 ± 13 | 33.4 ± 1.1 | 48 ± 14 | 46.7 ± 2.2
UCAUUAGACAUGUAAACCAAA | 99 ± 7 | 61.5 ± 6.8 | 58.8 ± 9.8 | 71.1 ± 3
UCAUUAUACAUGUAAACCAAA | 94.7 ± 10 | 54.4 ± 3.4 | 56.9 ± 8.6 | 71.5 ± 4.8
UCAUUCAACAUGUAAACCAAA | 91.6 ± 13 | 62 ± 0.91 | 58.8 ± 23 | 70.8 ± 2.1
UCAUUCCACAUGUAAACCAAA | 85.6 ± 14 | 14.3 ± 0.21 | 28.4 ± 8.8 | 32.8 ± 2.5
UCAUUCGACAUGUAAACCAAA | 90.3 ± 14 | 37.8 ± 2.9 | 51.1 ± 9.5 | 70.7 ± 2.1
UCAUUCUACAUGUAAACCAAA | 92.1 ± 13 | 45.5 ± 3.4 | 40.7 ± 6.3 | 83 ± 5
UCAUUGAACAUGUAAACCAAA | 83.3 ± 12 | 51.1 ± 5 | 58 ± 14 | 75.4 ± 2.3
UCAUUGCACAUGUAAACCAAA | 70.2 ± 8 | 50.4 ± 3.4 | 28.2 ± 2 | 39.9 ± 4.7
UCAUUGGACAUGUAAACCAAA | 83.2 ± 12 | 36.7 ± 7.3 | 39.5 ± 7.5 | 23.7 ± 1.4
UCAUUGUACAUGUAAACCAAA | 75.1 ± 11 | 34.2 ± 0.89 | 46.6 ± 10 | 49.5 ± 4.4
UCAUUUAACAUGUAAACCAAA | 89.4 ± 16 | 47 ± 4.8 | 63.7 ± 9.5 | 68.4 ± 2.9
UCAUUUCACAUGUAAACCAAA | 29.8 ± 1.4 | 31.4 ± 2 | 36.9 ± 7.5 | 13.4 ± 0.68
UCAUUUGACAUGUAAACCAAA | 87.9 ± 15 | 55.9 ± 6.8 | 65.3 ± 6.9 | 53.3 ± 4.8
UCAUUUUACAUGUAAACCAAA | 77 ± 5.8 | 32.4 ± 2 | 56.9 ± 9.8 | 29.1 ± 1.1
UCCAAAAACAUGUAAACCAAA | 108 ± 27 | 76.5 ± 4.7 | 82.9 ± 14 | 86.6 ± 11
UCCAAACACAUGUAAACCAAA | 86.2 ± 19 | 75.4 ± 7.9 | 62.5 ± 4.7 | 67.1 ± 7.9
UCCAAAGACAUGUAAACCAAA | 107 ± 29 | 69 ± 8.4 | 91.3 ± 20 | 95.9 ± 12
UCCAAAUACAUGUAAACCAAA | 86.9 ± 26 | 66.7 ± 14 | 62.4 ± 19 | 69.7 ± 1.9
UCCAACAACAUGUAAACCAAA | 111 ± 28 | 70.2 ± 10 | 75.5 ± 15 | 78.2 ± 14
UCCAACCACAUGUAAACCAAA | 33.4 ± 7.3 | 34.1 ± 1.6 | 4.77 ± 0.94 | 31.7 ± 3.7
UCCAACGACAUGUAAACCAAA | 111 ± 14 | 71 ± 20 | 76.9 ± 2.1 | 82.4 ± 7.5
UCCAACUACAUGUAAACCAAA | 22.1 ± 4.1 | 46 ± 2.1 | 14.4 ± 0.37 | 10 ± 1.7
UCCAAGAACAUGUAAACCAAA | 107 ± 26 | 51.4 ± 6.5 | 36.8 ± 8.4 | 73.8 ± 5.6
UCCAAGCACAUGUAAACCAAA | 5.39 ± 0.96 | 31.3 ± 0.96 | 6.36 ± 0.83 | 17.8 ± 0.77
UCCAAGGACAUGUAAACCAAA | 99.7 ± 22 | 44.8 ± 6.1 | 16.6 ± 7.7 | 57.5 ± 2.1
UCCAAGUACAUGUAAACCAAA | 83.2 ± 27 | 55.6 ± 10 | 34.2 ± 8 | 51.9 ± 3.2
